PubChem BioAssay AID1508642 (National Center for Advancing Translational Sciences (NCATS), 2021)
In all, about 43,000 compounds went through this assay and about 200 (0.47%) were called active. Roughly 12% stayed inconclusive and do not appear here. Calls come from the whole dose curve; as a rule, active = well fitted cell-killing curve with a large enough effect; inconclusive = small, poorly fitted or top-dose-only effect, or effect the other way; inactive = flat fitted curve, though single readings scatter. This is one part of the list.

experiment: Cell viability qHTS assay in S16 Pmp22-F2sN cells; conditions: S16 Pmp22-F2sN Schwann cells viability, CellTiter-Glo, 24 h; series mostly up to 57.5 µM; activity change, negative = cytotoxicity: at the top concentration; note: nearly all actives have a fitted effect of over 65% in size
How it was run: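 Used to flag compounds lowering reporter output through toxicity, this quantitative HTS measures ATP-based CellTiter-Glo luminescence in S16 Pmp22-F2sN Schwann cells after 24 h compound exposure at 37C.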
% is set by controls: 0 for no effect and ±100 for the full control effect; potency is the fitted concentration of half-maximal effect.

SMILES	activity change, negative = cytotoxicity	Potency
COc1ccc(CNc2ncnc3onc(-c4ccc(F)cc4)c23)cc1	inactive: -18.7%	
Cn1c(=O)c2c(ncn2CC(=O)Nc2cccc(Cl)c2Cl)n(C)c1=O	inactive: 3.4%	
CN(C(=O)Cn1cc(S(=O)(=O)Cc2ccccc2Cl)c2ccccc21)c1ccccc1	inactive: -11.4%	
Cc1ccc(Cl)cc1N1CCN(S(=O)(=O)c2ccc3c(c2)CC(C)N3C(=O)C2CCC2)CC1 (centres undefined)	inactive: -7.84%	
CCOCCCNc1ncnc2onc(C)c12	inactive: -9.94%	
CC(=O)c1ccc(NC(=O)c2sc(-n3nc(C)c(Cc4ccccc4)c3C)nc2C)cc1	inactive: 28.6%	
Cc1cccc(NC(=O)Nc2nnc(N(C)Cc3ccccc3)s2)c1	inactive: 0.998%	
CCN(Cc1ccccc1)Cc1c(O)ccc2c(=O)c(-c3ccc(Cl)cc3Cl)coc12	inactive: -21.3%	
Cc1ccccc1C(=O)NC1(C(F)(F)F)C(=O)Nc2c1c(=O)[nH]c(=O)n2-c1ccc(F)cc1 (centres undefined)	inactive: 2.02%	
COc1cccc(Cn2c(CNC(=O)c3cc([N+](=O)[O-])ccc3Cl)nc3cccnc32)c1	inactive: 1.91%	
COc1ccccc1CNC(=O)CCCn1c(=O)c2ccccc2n(CC(=O)Nc2c(C)cc(C)cc2C)c1=O	inactive: -5.11%	
COCCCNC(=O)c1ccc2c(c1)N(Cc1ccccc1)C(=O)c1ccccc1S2	inactive: 16.1%	
O=C(CSc1nc(=O)n(CCN2CCOCC2)c2c1CCC2)Nc1ccccc1	inactive: 24%	
CCOC(=O)c1sc(NC(=O)C2c3ccccc3Oc3ccccc32)c(C(=O)OCC)c1C	inactive: 7.08%	
CCn1cc(C(=O)NCc2ccccc2Cl)c(=O)c2cc(S(=O)(=O)N3CCc4ccccc4C3)ccc21	inactive: -4.83%	
CC(NC(=O)Cn1c(=O)oc2cc(S(=O)(=O)NCc3ccccc3)ccc21)c1ccccc1 (centres undefined)	inactive: 0.0823%	
Cc1ccccc1Nc1nc(-c2cccc(Cl)c2)c2c(n1)-c1ccccc1OC2	inactive: -0.853%	
COc1ccc(NC(=O)CSc2nnc(NC(=O)Nc3ccccc3)s2)cc1OC	inactive: -2.4%	
CC(=O)c1ccc(NC(=O)COc2ccccc2-c2nc(-c3cccc(C)c3)no2)cc1	inactive: 10.1%	
COC(=O)c1cccnc1-n1c(=O)c2cccnc2n(CC(=O)Nc2ccc(C)cc2C)c1=O	inactive: 3.02%	
O=C(Nc1cc(C(F)(F)F)ccc1Cl)c1cc(-c2ccc3c(c2)OCCO3)on1	inactive: 21.4%	
O=C(Nc1ccc(S(=O)(=O)Nc2ncccn2)cc1)c1ccccc1Cl	inactive: -5.22%	
Cc1ccc2c(c1)N(C(=O)CCC(=O)NCc1ccccc1Cl)CC(C)O2 (centres undefined)	inactive: -16.6%	
COC(=O)c1ccc(CSc2nc3c([nH]c4ccccc43)c(=O)n2-c2ccc(OC)cc2)o1	inactive: 3.49%	

SMILES	activity change, negative = cytotoxicity	Potency
CCOC(=O)c1oc2ccc(S(=O)(=O)n3nc(-c4ccc(Br)cc4)cc3N)cc2c1C	inactive: -3.95%	
COc1ccc(CNC(=O)c2c3c(nc4ccccc24)C(=O)N(C2CCCCC2)C3)cc1	inactive: 0.23%	
CC1CCc2c(sc(NC(=O)C3c4ccccc4Oc4ccccc43)c2C(=O)OC(C)C)C1 (centres undefined)	inactive: 8.96%	
CCOC(=O)c1scc(-c2ccccc2)c1S(=O)(=O)Nc1cc(Cl)c(OC)cc1OC	inactive: 16.9%	
Cc1ccc(S(=O)(=O)NCc2nc(-c3cccc(C)c3)no2)cc1	inactive: -2.73%	
COc1ccc(C2CC(=O)N(Cc3cccc(F)c3)c3ccccc3S2)cc1 (centres undefined)	inactive: -21.5%	
COc1ccccc1CNS(=O)(=O)c1ccc2c(c1)NC(=O)CC(=O)N2	inactive: 2.6%	
Cc1ccc(-n2nc(C)c3c(C(=O)NCc4ccccc4)cc(C4CC4)nc32)cc1	inactive: -1.37%	
COc1ccccc1Nc1nn2c(=O)c3ccc(C(=O)N4CCCC(C)C4)cc3nc2s1 (centres undefined)	inactive: 15%	
CCCc1nc(SCc2cc(=O)c3ccc(C)c(C)c3[nH]2)n[nH]1	inactive: -1.04%	
COc1ccc(S(=O)(=O)N2CCN(Cc3nc4ccc(C)cc4o3)CC2)cc1Cl	inactive: -20.3%	
Cc1ccc(NC(=O)c2ccc(-n3c(C)nnc3C)cc2)cc1F	inactive: -22.3%	
CCOC(=O)c1c(-c2ccc(C)cc2)csc1NC(=O)c1nc(SC(C)C)ncc1Cl	inactive: 0.0337%	
CCc1ccccc1NC(=O)C1CCCN(C(=O)c2cnn(-c3ccccc3)c2-n2cccc2)C1 (centres undefined)	inactive: -13.2%	
Cc1ccc(NC(=O)CSc2nc3ccccc3nc2N2CCOCC2)cc1	inactive: -25.8%	
COc1cc2nc(NCc3ccc(C)cc3)n3nc(-c4ccccc4)nc3c2cc1OC	inactive: -8.48%	
CCOc1ccccc1NC(=O)c1c(NC(=O)c2cccc(C)c2)sc2c1CCC2	inactive: 27.2%	
CCOc1ccc(N2CC(NC(=O)c3ccc(S(=O)(=O)N4CCCCC4)cc3)CC2=O)cc1 (centres undefined)	inactive: 10.2%	
CCc1cc2c(cc3c(=O)n(CC(=O)NC4CCC(C)CC4)ncn32)s1 (centres undefined)	inactive: 1.33%	
CCN1C(C(=O)c2ccccc2)=C(OC(=O)c2ccccc2OC)c2ccccc2S1(=O)=O	inactive: -30.3%	
COc1ccc(CCNC(=O)CS(=O)Cc2nc(-c3ccccc3F)oc2C)cc1OC (centres undefined)	inactive: 2.87%	
COc1cc(NC(=O)CSc2ncccc2C(=O)OC(C)C)cc(OC)c1	inactive: 4.79%	
Cc1cc(C(=O)NCc2ccccc2Cl)c2c(C)nn(-c3ccccc3)c2n1	inactive: 4.97%	
CC(C)CCNC(=O)CN1C(=O)CSc2ccc(S(=O)(=O)N3CCCCC3)cc21	inactive: 12.5%	

SMILES	activity change, negative = cytotoxicity	Potency
Cc1c(C(=O)N2CCN(c3ccccc3)CC2)sc2nc3n(c(=O)c12)CCC3	inactive: -3.6%	
CCc1ccc(S(=O)(=O)c2nnn3c2nc(NC(C)C)c2sccc23)cc1	inactive: -15%	
COc1ccc(CCNC(=O)c2ccc3c(c2)ncn3-c2ccc(C)cc2C)cc1OC	inactive: -8.74%	
CCN(CC)CCNC(=O)c1ccc2c(=O)n3nc(Nc4ccccc4OC)sc3nc2c1	inactive: 10.8%	
O=S1(=O)c2ccccc2N(Cc2cccc(Cl)c2)c2ccccc21	inactive: 9.01%	
COc1cccc(CNC(=O)C2CCN(c3nnc(-n4c(C)ccc4C)s3)CC2)c1OC	inactive: -3.43%	
CC(=O)c1cc2c(cc1N/C(=N/S(=O)(=O)c1ccc(C)cc1)c1ccc(F)cc1)OCO2	inactive: -1.61%	
O=C(NC1CCCC1)c1ccc(CSc2nc3cccnc3n2Cc2ccc(F)cc2)cc1	inactive: 2.21%	
CCOC(=O)c1ccc2ncc3c(-c4ccccc4)nn(-c4ccc(F)c(Cl)c4)c3c2c1	inactive: 5.85%	
CCOc1ccc(NC(=O)CSc2ncc3c(n2)-c2ccccc2N(Cc2ccccc2C)S3(=O)=O)cc1	inactive: -23.1%	
CC(=O)c1ccc(N2CCN(S(=O)(=O)c3ccc4c(c3)C(C)(C)C(=O)N4)CC2)cc1	inactive: -1.38%	
Oc1ccccc1-c1nc(/C=C/c2ccc(F)cc2)nn1-c1ccccc1	inactive: 19.2%	
COc1cccc(/C=C/C(=O)Nc2ccc3nc(N4CCN(C)CC4)cc(C)c3c2)c1OC		active: 31.6 µM
CC(Oc1ccccc1)C(=O)Nc1nnc2n1CCS2 (centres undefined)	inactive: -6.55%	
CC(=O)N1CCc2nc3sc(C(=O)Nc4ccc(Cl)cc4F)c(N)c3c(C(F)(F)F)c2C1	inactive: 4.8%	
CCOc1ccccc1NC(=O)Cn1c(=O)ccc2cc(S(=O)(=O)N3CCCC3)ccc21	inactive: -0.199%	
COc1ccc(C(=O)Nc2ccc(-c3nnc4n3CCCCC4)cc2)cc1OC	inactive: -1.68%	
COC(=O)c1cccc(-n2c(CCC(=O)O)ccc2-c2cccs2)c1	inactive: -2.12%	
O=C(c1cc2ccc3cccnc3c2[nH]1)N1CCN(c2ccccc2)CC1	inactive: 0.665%	
COc1cc(-c2nc3nc(C)cc(C)n3c2Nc2ccc(Cl)cc2)ccc1O	inactive: -2.14%	
Cc1nn(C(=O)c2cccc(Cl)c2)c(C)c1S(=O)(=O)N1CCOCC1	inactive: -3.37%	
CCn1c(=O)cc(SCC(=O)NCc2ccc(OC)cc2OC)c2ccccc21	inactive: -5.42%	
COc1ccc(CCNC(=O)c2ccc3c(c2)N(Cc2ccc(F)cc2)C(=O)CS3)cc1OC	inactive: -2.47%	
COc1ccc(OC)c(NC(=O)CSc2ccc(-c3sc(C)nc3C)nn2)c1	inactive: -8.17%	

SMILES	activity change, negative = cytotoxicity	Potency
O=C(COc1ccc(Cl)cc1)Nc1ccc2nc(SCC(=O)N3CCCC3)sc2c1	inactive: 8%	
O=C(c1nc(-c2ccc(Cl)cc2)n2c1CCCCC2)N1CCN(c2ccccc2)CC1	inactive: -11%	
O=C(COc1ccccc1-c1nc(-c2ccccc2)no1)Nc1cccc([N+](=O)[O-])c1	inactive: -0.0557%	
COc1ccc(CCNC(=O)C(=O)NCC(c2ccco2)S(=O)(=O)c2cccs2)cc1OC (centres undefined)	inactive: 0.301%	
CCC(=O)N1CCc2cc(S(=O)(=O)NC(CC(C)C)C(=O)NCCc3ccccc3)ccc21 (centres undefined)	inactive: -5.64%	
O=C(CSc1nnc2ccc3ccccc3n12)Nc1ccccc1Cl	inactive: -8.47%	
Cc1ccc(NS(=O)(=O)c2ccc(-n3cccn3)cc2)cc1Cl	inactive: -12.3%	
O=C(Cc1ccc(F)cc1)NCc1ccc2c(c1)CCN2C(=O)c1ccc(F)cc1	inactive: -3.09%	
CCOC(=O)N1CCc2c(sc3c2c(=O)n(-c2ccccc2C(F)(F)F)c(=O)n3Cc2ccccc2C)C1	inactive: -5.05%	
COc1cccc(CNC(=O)c2ccc(-c3nc(COc4ccccc4)c(C)o3)cc2)c1	inactive: -1.93%	
CCOc1ccc(C2CC(c3c(O)n(C4CCCCC4)c(=O)[nH]c3=O)=Nc3ccccc3S2)cc1 (centres undefined)	inactive: 11.8%	
O=C(Nc1sc2c(c1C(=O)NCc1cccnc1)CCCC2)c1cc(=O)c2ccccc2o1	inactive: -0.463%	
Cc1ccc2nc(COc3ccccc3NC(=O)C(C)(C)C)cc(=O)n2c1	inactive: 2.58%	
COc1cccc2c1cc1c(=O)n(CC(=O)NCc3ccc(C)o3)nc(C)n12	inactive: -1.16%	
CCOc1ccccc1CNC(=O)C1CCN(c2nnc(-n3c(C)ccc3C)s2)CC1	inactive: -2.38%	
CCCCOc1ccc(C2=NC(c3ccncc3)=Nc3ccc(OCC)cc3N2)cc1	inactive: 10.5%	
O=C(Cn1c(=O)n(CC2CCC(C(=O)NCCc3ccccc3)CC2)c(=O)c2ccccc21)Nc1ccccc1 (centres undefined)	inactive: 14.1%	
CCc1ccc(NC(=O)CN2C(=O)C(c3ccc(C)cc3)=NC23CCCCC3)cc1	inactive: -18%	
Cc1cccc(Cn2cccc2CNS(=O)(=O)c2ccccc2F)c1	inactive: -16.8%	
CCc1ccc(CNC(=O)Cn2nc(C)n3c(cc4cc(C)ccc43)c2=O)cc1	inactive: 1.4%	
COc1ccc(NC(=O)C(Cc2ccccc2)NS(=O)(=O)c2ccc3c(c2)CCC(=O)N3)c(OC)c1 (centres undefined)	inactive: -15.3%	
COc1ccc(NC(=O)CSc2nc3nc(C)c(Cc4ccccc4)c(C)n3n2)cc1OC	inactive: 3.98%	
